From the supplement of paper PMC7125110 come the findings set out here.

The chains are these.
B1: glmS ribozyme (parent)
chain: AUAAAAGCGCCAGAACUACAGAAAUGUAGUUGACGAGGAGGAGGUUUAUCGAAUUUUCGGCGGAUGCCUCCAAA

Holding throughout (details): with glucosamine-6-phosphate
Data set [1] covers variants of B1. The experiment in a line: self-cleavage kobs at 640 uM GlcN6P; higher = faster cleavage; RNA array. In a few lines:
(§1)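 Over ~14 h at 37 °C, tiles were imaged as glucosamine-6-phosphate (40 μM to 10 mM) in HEPES/KCl/Mg(OAc)2 buffer flowed across sequenced MiSeq chips. The chips carried barcoded ribozyme variants transcribed in situ by E. coli RNA polymerase and tracked with a hybridised Cy3 probe. After normalisation to baseline and to non-cleaving reference variants, one- or two-exponential decay fits of per-tile medians gave kobs. kcat and KM followed from weighted Michaelis–Menten fits across concentrations.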

The variants in data set [2] derive from B1. Nature of the data set: self-cleavage kobs at 2500 uM GlcN6P; higher = faster cleavage; RNA array. In a few lines: as §1
Data set [3] covers variants of B1. Nature of the data set: self-cleavage kobs at 160 uM GlcN6P; higher = faster cleavage; RNA array. In a few lines:
as §1

Variants of B1 are the subject of data set [4]. The experiment in a line: self-cleavage kobs at 10000 uM GlcN6P; higher = faster cleavage; RNA array. In a few lines: as §1

± gives the standard error. This sample is rich in variants without activity.

Take U30G G32C G41A C50G G51U: the “self-cleavage kobs at 640 uM GlcN6P” value in the data set with glucosamine-6-phosphate [1] was < 1e-05 s⁻¹. In addition, in the data set with glucosamine-6-phosphate [2], the “self-cleavage kobs at 2500 uM GlcN6P” value is < 1e-05 s⁻¹.
For the variant A15U U46C G59A, in the data set with glucosamine-6-phosphate [1], the “self-cleavage kobs at 640 uM GlcN6P” value was < 1e-05 s⁻¹. Also, the “self-cleavage kobs at 2500 uM GlcN6P” value in the data set with glucosamine-6-phosphate [2] is < 1e-05 s⁻¹.
On to G13U A42C, for which the “self-cleavage kobs at 640 uM GlcN6P” value with glucosamine-6-phosphate [1] was < 1e-05 s⁻¹. In addition, the “self-cleavage kobs at 160 uM GlcN6P” value with glucosamine-6-phosphate [3] is < 1e-05 s⁻¹. Besides, in the data set with glucosamine-6-phosphate [2], the “self-cleavage kobs at 2500 uM GlcN6P” value was < 1e-05 s⁻¹. Also, in the data set with glucosamine-6-phosphate [4], the “self-cleavage kobs at 10000 uM GlcN6P” value was < 1e-05 s⁻¹.
As to A14G C34A U46C, the “self-cleavage kobs at 640 uM GlcN6P” value in the data set with glucosamine-6-phosphate [1] is < 1e-05 s⁻¹. Besides, the “self-cleavage kobs at 160 uM GlcN6P” value with glucosamine-6-phosphate [3] was < 1e-05 s⁻¹. In the data set with glucosamine-6-phosphate [2], the “self-cleavage kobs at 2500 uM GlcN6P” value is < 1e-05 s⁻¹.
Turning to G32A G66A, the “self-cleavage kobs at 640 uM GlcN6P” value in the data set with glucosamine-6-phosphate [1] came out at 0.000269 ± 6.9e-05 s⁻¹. The “self-cleavage kobs at 2500 uM GlcN6P” value with glucosamine-6-phosphate [2] stood at 0.000911 ± 0.00018 s⁻¹. Besides, the “self-cleavage kobs at 10000 uM GlcN6P” value with glucosamine-6-phosphate [4] came out at 0.0019 ± 0.00044 s⁻¹.
Regarding A33C C50G G51A G60C, in the data set with glucosamine-6-phosphate [1], the “self-cleavage kobs at 640 uM GlcN6P” value was < 1e-05 s⁻¹. Also, the “self-cleavage kobs at 2500 uM GlcN6P” value with glucosamine-6-phosphate [2] was < 1e-05 s⁻¹.
Turning to G29A G60U, the “self-cleavage kobs at 640 uM GlcN6P” value in the data set with glucosamine-6-phosphate [1] is < 1e-05 s⁻¹. Also, the “self-cleavage kobs at 2500 uM GlcN6P” value with glucosamine-6-phosphate [2] was < 1e-05 s⁻¹. The “self-cleavage kobs at 10000 uM GlcN6P” value with glucosamine-6-phosphate [4] is < 1e-05 s⁻¹.
As to C16A U31G G38U G43A, the “self-cleavage kobs at 640 uM GlcN6P” value with glucosamine-6-phosphate [1] is < 1e-05 s⁻¹. In addition, in the data set with glucosamine-6-phosphate [3], the “self-cleavage kobs at 160 uM GlcN6P” value was < 1e-05 s⁻¹. Further, the “self-cleavage kobs at 2500 uM GlcN6P” value in the data set with glucosamine-6-phosphate [2] was < 1e-05 s⁻¹.
As for A33C U49A, the “self-cleavage kobs at 640 uM GlcN6P” value with glucosamine-6-phosphate [1] was < 1e-05 s⁻¹.
With G32C A42C G62U, the “self-cleavage kobs at 640 uM GlcN6P” value with glucosamine-6-phosphate [1] is < 1e-05 s⁻¹. In addition, the “self-cleavage kobs at 2500 uM GlcN6P” value with glucosamine-6-phosphate [2] is < 1e-05 s⁻¹.
For G32C U45G G60A C68G, the “self-cleavage kobs at 640 uM GlcN6P” value in the data set with glucosamine-6-phosphate [1] is < 1e-05 s⁻¹. For the same variant, the “self-cleavage kobs at 2500 uM GlcN6P” value in the data set with glucosamine-6-phosphate [2] was < 1e-05 s⁻¹.
Take U30A G43A U56G: in the data set with glucosamine-6-phosphate [1], the “self-cleavage kobs at 640 uM GlcN6P” value is < 1e-05 s⁻¹.
Take A23C U69A: in the data set with glucosamine-6-phosphate [1], the “self-cleavage kobs at 640 uM GlcN6P” value stood at 0.000292 ± 0.0001 s⁻¹. The “self-cleavage kobs at 2500 uM GlcN6P” value with glucosamine-6-phosphate [2] turned out to be 0.000135 ± 2.9e-05 s⁻¹. In addition, the “self-cleavage kobs at 10000 uM GlcN6P” value in the data set with glucosamine-6-phosphate [4] turned out to be 9.83e-05 ± 4.3e-05 s⁻¹.
Regarding U31G G41A U56G, the “self-cleavage kobs at 640 uM GlcN6P” value in the data set with glucosamine-6-phosphate [1] was < 1e-05 s⁻¹.
Regarding G29A A33G, the “self-cleavage kobs at 640 uM GlcN6P” value with glucosamine-6-phosphate [1] was < 1e-05 s⁻¹. Moreover, in the data set with glucosamine-6-phosphate [3], the “self-cleavage kobs at 160 uM GlcN6P” value is < 1e-05 s⁻¹. The “self-cleavage kobs at 2500 uM GlcN6P” value in the data set with glucosamine-6-phosphate [2] is < 1e-05 s⁻¹. Besides, in the data set with glucosamine-6-phosphate [4], the “self-cleavage kobs at 10000 uM GlcN6P” value was < 1e-05 s⁻¹.
Consider G13C G37A G62A, for which, in the data set with glucosamine-6-phosphate [1], the “self-cleavage kobs at 640 uM GlcN6P” value is < 1e-05 s⁻¹. Moreover, the “self-cleavage kobs at 2500 uM GlcN6P” value in the data set with glucosamine-6-phosphate [2] was < 1e-05 s⁻¹. Also, the “self-cleavage kobs at 10000 uM GlcN6P” value with glucosamine-6-phosphate [4] was < 1e-05 s⁻¹.
Take G13A A42C A64G: in the data set with glucosamine-6-phosphate [1], the “self-cleavage kobs at 640 uM GlcN6P” value is < 1e-05 s⁻¹. For the same variant, the “self-cleavage kobs at 160 uM GlcN6P” value with glucosamine-6-phosphate [3] was < 1e-05 s⁻¹. Besides, the “self-cleavage kobs at 2500 uM GlcN6P” value with glucosamine-6-phosphate [2] is < 1e-05 s⁻¹.
For the variant G13C G40U U57C A64G, in the data set with glucosamine-6-phosphate [1], the “self-cleavage kobs at 640 uM GlcN6P” value was < 1e-05 s⁻¹.
For the variant G32U A53C, the “self-cleavage kobs at 640 uM GlcN6P” value with glucosamine-6-phosphate [1] is 0.000104 ± 2.3e-05 s⁻¹. Moreover, the “self-cleavage kobs at 2500 uM GlcN6P” value with glucosamine-6-phosphate [2] stood at 0.000105 ± 2.7e-05 s⁻¹. Besides, the “self-cleavage kobs at 10000 uM GlcN6P” value with glucosamine-6-phosphate [4] stood at 0.000275 ± 4.6e-05 s⁻¹.
In the case of U31G G38A U57C C58U G66C, the “self-cleavage kobs at 640 uM GlcN6P” value in the data set with glucosamine-6-phosphate [1] is < 1e-05 s⁻¹.
With G29C U30C G60U, in the data set with glucosamine-6-phosphate [1], the “self-cleavage kobs at 640 uM GlcN6P” value is < 1e-05 s⁻¹.
In the case of G13U G35U A42C U46C, the “self-cleavage kobs at 640 uM GlcN6P” value with glucosamine-6-phosphate [1] is < 1e-05 s⁻¹.
Turning to A14G G29A A36U U47C C67U, the “self-cleavage kobs at 640 uM GlcN6P” value with glucosamine-6-phosphate [1] is < 1e-05 s⁻¹. For the same variant, the “self-cleavage kobs at 160 uM GlcN6P” value with glucosamine-6-phosphate [3] is < 1e-05 s⁻¹.
With U30G G41A G63C, in the data set with glucosamine-6-phosphate [1], the “self-cleavage kobs at 640 uM GlcN6P” value is < 1e-05 s⁻¹. The “self-cleavage kobs at 2500 uM GlcN6P” value with glucosamine-6-phosphate [2] was < 1e-05 s⁻¹.
For the variant U30A U56C, the “self-cleavage kobs at 640 uM GlcN6P” value in the data set with glucosamine-6-phosphate [1] was found to be 0.000126 ± 2.4e-05 s⁻¹. Further, the “self-cleavage kobs at 2500 uM GlcN6P” value with glucosamine-6-phosphate [2] came out at 0.000369 ± 8.1e-05 s⁻¹. Further, the “self-cleavage kobs at 10000 uM GlcN6P” value in the data set with glucosamine-6-phosphate [4] turned out to be 0.00113 ± 0.00015 s⁻¹.
Consider G32C U65A, for which, in the data set with glucosamine-6-phosphate [1], the “self-cleavage kobs at 640 uM GlcN6P” value is < 1e-05 s⁻¹. The “self-cleavage kobs at 2500 uM GlcN6P” value in the data set with glucosamine-6-phosphate [2] was < 1e-05 s⁻¹.
